Test results taken from the supplement of paper PMC12645437, “Orthogonal IMiD-Degron Pairs Induce Selective Protein Degradation in Cells” (ACS Chemical Biology, 2025).
This is one part of the list.

Molecular target: no compound (DMSO)
Assay: log2 fold change of degron read counts, EGFP-low vs EGFP+ sorted cells; higher = lower degron-EGFP level without compound (poor expression or instability)
Details: compound: DMSO control; 18 h
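Further: jurkat cells carrying a lentiviral library of mutant zinc finger degrons fused to EGFP plus mCherry, mCherry+ cells FACS sorted, degron abundance counted by next-generation sequencing.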

Sequence	log2 fold change of degron read counts
FSCDICGARFTQKGNLLRHIKL	-2.4
FACPICGATFTQKGNLLRHIKL	-0.494
FECEQCGARFTQKGNLLRHIKL	-1.9
FLCPICGRMFTQKGNLLRHIKL	1.09
FICDQCGANFTQKGNLLRHIKL	-2.14
FVCNQCGRTFTQKGNLLRHIKL	-1.13
FQCPQCGAFFTQKGNLLRHIKL	-0.575
FHCEQCGAHFTQKGNLLRHIKL	-1.55
LRCEICGFICTQKGNLLRHIKL	0.664
FFCDICGAIFTQKGNLLRHIKL	-0.286
FLCPVCGANFTQKGNLLRHIKL	-0.302
FSCPICGHTFTQKGNLLRHIKL	-0.94
FSCEICGRLFTQKGNLLRHIKL	-0.932
LCCNQCGFECTQKGNLLRHIKL	-0.229
FICPICGACFTQKGNLLRHIKL	0.435
FWCPICGHKFTQKGNLLRHIKL	0.588

Sequence	log2 fold change of degron read counts
LFCEICGFDCTQKGNLLRHIKL	0.442
FKCEICGHRFTQKGNLLRHIKL	-1.47
FMCNQCGRHFTQKGNLLRHIKL	-0.805
FHCPICGHWFTQKGNLLRHIKL	0.535
FQCDVCGAAFTQKGNLLRHIKL	-1.04
FQCNVCGACFTQKGNLLRHIKL	-0.799
LKCEICGFSCTQKGNLLRHIKL	-0.739
FMCSVCGHAFTQKGNLLRHIKL	-1.48
FECNQCGRMFTQKGNLLRHIKL	-1.38
FWCEICGHNFTQKGNLLRHIKL	0.156
LFCPICGFTCTQKGNLLRHIKL	1.38
FKCDICGAHFTQKGNLLRHIKL	-1.3
FFCPQCGALFTQKGNLLRHIKL	0.458
FLCSVCGHVFTQKGNLLRHIKL	0.0947
FTCNVCGALFTQKGNLLRHIKL	-0.625
LNCEICGFLCTQKGNLLRHIKL	1.12
